# ChEMBL document CHEMBL4888484, “Replenishing the malaria drug discovery pipeline: Screening and hit evaluation of the MMV Hit Generation Library 1 (HGL1) against asexual blood stage Plasmodium falciparum ,using a nano luciferase reporter read-out” (2022)
# Out of some 150,000 compounds screened, about 540 (0.36%) showed an effect of 50% or more. The list shows a part of the results.
# Test system: Plasmodium falciparum
# Assay: Primary screen in NF54 nanoGlo assay, in single point, at 2uM, 72h; a lower Z score goes with more inhibition
# Type: functional, Erythrocyte
# Conditions: timepoint 72 hour
Compound,% Inhibition [%],Z score
O=C(Cc1nnc(-c2cnccn2)o1)Nc1ccc(F)c(F)c1,-7,0.67
Cc1ccc(-c2ccnc(N3CC[C@@H]4OCc5cnnn5[C@H]4C3)n2)c(C)n1,-10,1.69
O=C(Cn1c(-c2ccccc2)nn(-c2ccccc2Cl)c1=O)N1CC(O)C1,-14,1.64
Cc1cc(COCC(=O)N2CCc3cc(C)c(C)cc32)no1,-6,0.84
CCOc1ccccc1CN1CCC(C)(c2noc(C3CCOCC3)n2)CC1,-3,0.32
O=S(=O)(c1ccc2ccccc2c1)N1CCN(c2nccs2)CC1,-20,2.75
Cc1cncn1C1CCN(C(=O)[C@]2(C)CC[C@H](C)C2(C)C)CC1,15,-2.67
CN1CCC(OCCCn2ccnc2-c2ccccc2C(=O)O)CC1,-11,1.43
Cc1cccc(NC(=O)COc2c(C)[nH]ccc2=O)n1,-4,0.75
Cc1sc2ccccc2c1CN1CCO[C@H](C(=O)N(C)C)C1,-13,2.57
CCc1ncnc(N2CC(c3cnc4ccccc4n3)C2)c1F,-10,1.11
CC1(C)CCc2sc(CNC(=O)C3(O)CCOCC3)cc2C1,11,-1.08
CCCN(Cc1c(C)nn(-c2ccccc2)c1N1CCN(CC)CC1)C(=O)CC(C)(C)C,-12,1.35
C=CCN(CC=C)C(=O)Cn1ccnc1,0,0.05
Cn1nnc2c(C(=O)NC[C@]3(O)CCCC3(C)C)ccnc21,6,-1.13
Cn1cnc(C(=O)N2CCCCCC2CC(O)c2ccco2)c1 (stereo not drawn),-14,2.03
C#CCCC1(CCC(=O)N(C)C[C@H]2CN(CC)c3ccccc3O2)N=N1,-7,0.85
C[C@H]1CN(C(=O)COCc2ccccc2)C[C@]1(O)C1CC1,-2,0.3
C[C@@H](c1noc(-c2ccccc2O)n1)n1ccnc1,-7,0.8
CN(Cc1cccc(C#N)c1)CC1(CO)CCC1,-3,0.45
CCc1nc(CNC(=O)NC[C@H](O)COc2ccc(Cl)c(C)c2)no1,-14,2.44

Compound,% Inhibition [%],Z score
CN(C)c1ncccc1NC(=O)c1coc(CC2CC2)n1,-12,1.68
CCCc1nn(-c2ccc(Cl)cc2)c(=O)n1CC(=O)NC[C@H]1CCCO1,-5,1.04
CCCC1CN(C(=O)C2CCOC(C)C2)CCN1C(=O)C1CCOC(C)C1 (stereo not drawn),1,-0.28
CN1N=C(C(=O)NCCc2nc3c(s2)CCC3)CCC1=O,-7,1.25
Cc1cc(NC(=O)[C@@H]2CCCN2S(C)(=O)=O)cc2sc(N)nc12,-4,0.5
CCc1noc2nc(C)nc(NCc3cccc(Cl)c3)c12,0,0
COc1cccc(-c2ccc(N3CCN(C(=O)CN(CCc4ccccc4)C(=O)c4ccco4)CC3)nn2)c1,-17,2.44
Cc1cc(C)cc(OCCN2C(=O)c3ccccc3CS2(=O)=O)c1,-10,1.31
Cc1nc(N2CCOCC2)cc(N2CCN(C(=O)c3cccc(Br)c3)CC2)n1,31,-4.18
CC(C)N(CCCNC(=O)c1cnn2c3c(cnc12)CCCCCC3)Cc1ccccc1,37,-0.86
O=C(c1cnn(-c2ccccc2)n1)N(c1ccccc1)C1CCCCC1,5,-0.68
CCN(CCNC(=O)[C@]1(C)COCc2nnc(C3CC3)n21)c1ccccc1,-17,1.92
CNc1ccccc1C(C)(C)c1cc(=O)[nH][nH]1,-12,1.25
COCCn1ccnc1C1N(C(=O)C(N)C2CCC2)CC1(C)C (stereo not drawn),0,0.05
COc1cccc(CC(=O)N2CCOc3ccc(CN4CCOCC4)cc3C2)c1,-21,2.23
CCCN(Cc1c(-c2cccc(C)c2)noc1N1CCOCC1)C(=O)c1ccc(Cl)cc1,-13,2.1
COCC[C@]1(C(=O)O)CCN(C(=O)OC(C)(C)C)C1,3,-0.62
COc1ncc(Br)cc1CN1C(=O)[C@H](C)N(C)C1=O,15,-1.88
FC(F)(F)CN1CCOC[C@H]1c1nc(-c2ccsc2)no1,-11,0.94
COC(c1ccc(Cl)cc1)C(C)NC(=O)C1(C)CCOCC1 (stereo not drawn),0,-0.01
CN(C)C(=O)CCC(=O)N1CC[C@](C)(O)[C@H](Cc2ccccc2)C1,10,-1.27

Compound,% Inhibition [%],Z score
Nc1nc(-c2ccccc2)c2n1NC(=O)C[C@H]2C(=O)Nc1ccccc1,-9,1.14
CC(CC(N)=O)NC1CCN(C(C)C)C1c1ccc(Cl)c(F)c1 (stereo not drawn),-17,1.94
CC=C(C)C(=O)N1C[C@H](NC(=O)OC(C)(C)C)[C@@H](c2cnn(C)c2)C1,-12,1.18
OCc1ccccc1-c1cnn(Cc2ccccc2)c1,-21,1.95
COC[C@](C)(CNS(=O)(=O)c1cccnc1)OC,-24,4.5
COc1nccc(N(C)C)c1NC(=O)NCCc1cccs1,-6,0.97
Cc1nc[nH]c1CN1C[C@H]2CC[C@@H](C1)N(Cc1cc(CN(C)C)cs1)C2,-6,0.83
Cc1cc(F)ccc1-n1ccc(NC(=O)N[C@@H]2C=C[C@H](CO)C2)n1,-4,0.68
CN(C(=O)c1ccc(F)c(C#N)c1)[C@H]1CC1(C)C,-1,0.12
O=C(CCn1cncn1)N1CCO[C@@H](CC(c2ccccc2)c2ccccc2)C1,-9,1.16
Cc1ccnc([C@H](C2CC2)n2cc(-c3nc(C)n4ccccc34)nn2)c1,17,-2.21
Cc1nnnn1[C@@H](C(=O)NCc1cc2n(n1)CCNC2)c1ccccc1,-7,1.07
O=C(O)[C@@H]1CN(C(=O)Cc2ccc(O)cc2)C[C@@H]1c1ccccc1,-6,0.95
COc1ccc(OC)c2c1cc(C(=O)Nc1ccncc1)n2C,-7,0.85
Cc1nn(C)c(Cl)c1S(=O)(=O)N1CCCNCC1,-7,1.05
C#C[C@@H](NC(=O)NCc1ccc(S(C)(=O)=O)c(Cl)c1)C(C)C,-14,1.28
CC(C)N1C[C@H](CNC(=O)c2ccc(Cl)s2)C2(CCCCC2)C1,-3,0.56
CC(=O)NC[C@H]1CN(C(=O)Cc2cccc(C(F)(F)F)n2)CCO1,-5,0.48
CN(C)c1ccc(NC(=O)CCCc2ccc3[nH]c(=O)[nH]c3c2)nc1,0,0.04
COc1ccc(C(=O)N2c3cc(CNC(=O)c4cccc(OC)c4)ccc3C[C@@H]2C)cc1,16,-1.87
Cc1ccc(C)c(C2CC3CC2C2C(=O)N(c4ccc(Br)cc4)C(=O)C32)c1 (stereo not drawn),-4,0.54

Compound,% Inhibition [%],Z score
C[C@@H](Oc1cnc2ccccc2c1)C(=O)N[C@H]1CCO[C@@H]1c1ccc(=O)[nH]c1,-6,0.94
CC(=O)NC(C)C(=O)N1CCO[C@@H](C)C1 (stereo partly drawn),1,-0.18
CCCS(=O)(=O)Nc1ccccc1-c1ncc2n1CCCC2,-15,1.74
COc1ccc(N2CCN3c4ccc(C(F)(F)F)cc4CC(C(=O)NCCC(C)C)C3C2)cc1 (stereo not drawn),4,-0.37
CCOc1ncccc1NC(=O)c1cc(C)no1,-13,1.14
O=C(NC(c1ccccc1)c1ccccc1)c1cc2n(n1)CCN(Cc1ccccc1Cl)C2=O,4,-0.76
O=C(O)[C@H]1CCN(C(=O)c2ccc3c(c2)CCCC3)C1,-10,1.43
C[C@H]1CS(=O)(=O)CCCN1C(=O)Cc1ccc2cnccc2c1,-2,0.3
Cc1ccc(CN2CCN(c3ncccn3)CC2)o1,-14,1.95
CCn1ncnc1[C@H](C)n1cnc2cccnc2c1=O,-13,1.24
Cc1nccn1[C@H]1CCCN(c2nc(N)nc3c2cnn3C)C1,-14,1.44
CC(NC(=O)C1CC2CCCCC2N1S(=O)(=O)c1ccc2c(c1)OCCO2)c1ccccc1 (stereo not drawn),-33,3.88
O=C(O)C1CN(c2nc3c(F)cccc3s2)C1,24,-3.02
O=C(Cc1ccccc1)N1CCN(C(=O)c2cccc(F)c2)CC1,-10,1.97
Cc1cc2c(cc1C)C(C(=O)N1CCOC(CNc3nccn(C)c3=O)C1)CO2 (stereo not drawn),26,-2.97
Cc1cnc(C(=O)NC[C@@H]2CN(C)C(=O)[C@H](c3ccccc3)N2Cc2cccnc2)cn1,-1,0.11
Cc1cc(NC(=O)NCCc2cn[nH]c2)cnc1C(F)(F)F,-9,1.61
Cc1nonc1[C@@H]1CCCN1Cc1ccc(-c2ccn(CCCF)n2)o1,-9,0.83
O=C1c2ccccc2C(=O)N1C[C@@H](O)Cn1ccnc1,-13,1.22
CCc1nc(CN2CCC[C@H](O)CC2)no1,-9,1.75
CCC[C@]1(O)CCC12CCN(C(=O)c1ccc3ncccc3c1)CC2,2,-0.31
